# Test results published in the supplement of paper PMC8728848.
# Some of the results follow.
# How the values were obtained:
# Assay in all cases: glycan array binding signal (z-score within array); higher = stronger binding
# Conditions in all cases: glycan notation: IUPAC condensed, linker removed
# [1] = target: Gal(b1-4)GlcNAc(a1-6)Gal(b1-4)GlcNAc
# Method in brief: (§1)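 The binding signal is a Z-score computed within each array and averaged over linkers. Arrays of the same protein sequence at different concentrations or buffers were also averaged together. Data originate from 3228 arrays in the Consortium for Functional Glycomics database, kept only where the protein sequence was available.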
# [2] = target: Gal(b1-4)GlcNAc(b1-2)Man(a1-3)Man(b1-4)GlcNAc(b1-4)GlcNAc
# Method in brief: as §1
# [3] = target: Gal(b1-4)GlcNAc(b1-2)Man(a1-3)[Gal(b1-4)GlcNAc(b1-2)Man(a1-6)]Man(b1-4)GlcNAc(b1-4)GlcNAc
# Method in brief: as §1
# [4] = target: Gal(b1-4)GlcNAc(b1-2)Man(a1-3)[Gal(b1-4)GlcNAc(b1-2)Man(a1-6)]Man(b1-4)GlcNAc(b1-4)[Fuc(a1-6)]GlcNAc
# Method in brief: as §1
# [5] = target: Gal(b1-4)GlcNAc(b1-2)Man(a1-3)[GlcNAc(b1-2)Man(a1-6)]Man(b1-4)GlcNAc(b1-4)GlcNAc
# Method in brief: as §1
# [6] = target: Gal(b1-4)GlcNAc(b1-2)Man(a1-3)[Man(a1-6)]Man(b1-4)GlcNAc(b1-4)GlcNAc
# Method in brief: as §1
# [7] = target: Gal(b1-4)GlcNAc(b1-2)Man(a1-6)Man(b1-4)GlcNAc(b1-4)GlcNAc
# Method in brief: as §1
# [8] = target: Gal(b1-4)GlcNAc(b1-2)Man(a1-6)[GlcNAc(b1-2)Man(a1-3)]Man(b1-4)GlcNAc(b1-4)GlcNAc
# Method in brief: as §1
# [9] = target: Gal(b1-4)GlcNAc(b1-2)Man(a1-6)[Man(a1-3)]Man(b1-4)GlcNAc(b1-4)GlcNAc
# Method in brief: as §1
# [10] = target: Gal(b1-4)GlcNAc(b1-2)[Gal(b1-4)GlcNAc(b1-4)]Man(a1-3)[Gal(b1-4)GlcNAc(b1-2)Man(a1-6)]Man(b1-4)GlcNAc(b1-4)GlcNAc
# Method in brief: as §1
# [11] = target: Gal(b1-4)GlcNAc(b1-2)[Gal(b1-4)GlcNAc(b1-4)]Man(a1-3)[Gal(b1-4)GlcNAc(b1-2)[Gal(b1-4)GlcNAc(b1-6)]Man(a1-6)]Man(b1-4)GlcNAc(b1-4)GlcNAc
# Method in brief: as §1
# [12] = target: Gal(b1-4)GlcNAc(b1-3)Gal(b1-3)GlcNAc
# Method in brief: as §1
# [13] = target: Gal(b1-4)GlcNAc(b1-3)Gal(b1-4)Glc
# Method in brief: as §1
# [14] = target: Gal(b1-4)GlcNAc(b1-3)Gal(b1-4)GlcNAc
# Method in brief: as §1
# [15] = target: Gal(b1-4)GlcNAc(b1-3)Gal(b1-4)GlcNAc(b1-3)Gal(b1-4)GlcNAc
# Method in brief: as §1
# [16] = target: Gal(b1-4)GlcNAc(b1-3)Gal(b1-4)[Fuc(a1-3)]GlcNAc(b1-3)Gal(b1-4)[Fuc(a1-3)]GlcNAc
# Method in brief: as §1
# [17] = target: Gal(b1-4)GlcNAc(b1-3)GalNAc
# Method in brief: as §1
# [18] = target: Gal(b1-4)GlcNAc(b1-3)[Gal(b1-4)GlcNAc(b1-6)]Gal(b1-4)GlcNAc
# Method in brief: as §1
# [19] = target: Gal(b1-4)GlcNAc(b1-3)[Gal(b1-4)GlcNAc(b1-6)]GalNAc
# Method in brief: as §1
# [20] = target: Gal(b1-4)GlcNAc(b1-3)[GlcNAc(b1-6)]Gal(b1-4)GlcNAc
# Method in brief: as §1
# [21] = target: Gal(b1-4)GlcNAc(b1-6)Gal(b1-4)GlcNAc
# Method in brief: as §1
# [22] = target: Gal(b1-4)GlcNAc(b1-6)GalNAc
# Method in brief: as §1
# [23] = target: Gal(b1-4)GlcNAc(b1-6)[Gal(b1-3)]GalNAc
# Method in brief: as §1
# [24] = target: Gal3S(b1-3)GalNAc
# Method in brief: as §1
# [25] = target: Gal3S(b1-3)GlcNAc
# Method in brief: as §1
# [26] = target: Gal3S(b1-3)[Fuc(a1-4)]GlcNAc
# Method in brief: as §1
# [27] = target: Gal3S(b1-4)Glc
# Method in brief: as §1
# [28] = target: Gal3S(b1-4)Glc6S
# Method in brief: as §1
# [29] = target: Gal3S(b1-4)GlcNAc
# Method in brief: as §1
# [30] = target: Gal3S(b1-4)GlcNAc6S
# Method in brief: as §1
# [31] = target: Gal3S(b1-4)[Fuc(a1-3)]Glc
# Method in brief: as §1
# [32] = target: Gal3S(b1-4)[Fuc(a1-3)]Glc6S
# Method in brief: as §1
# [33] = target: Gal3S4S(b1-4)GlcNAc
# Method in brief: as §1
# [34] = target: Gal3S6S(b1-4)GlcNAc
# Method in brief: as §1
# [35] = target: Gal3S6S(b1-4)GlcNAc6S
# Method in brief: as §1
# [36] = target: Gal4S(b1-4)GlcNAc
# Method in brief: as §1
# [37] = target: Gal4S6S(b1-4)GlcNAc
# Method in brief: as §1
# [38] = target: Gal6S(b1-4)Glc
# Method in brief: as §1
# [39] = target: Gal6S(b1-4)Glc6S
# Method in brief: as §1
# [40] = target: Gal6S(b1-4)GlcNAc
# Method in brief: as §1
# [41] = target: Gal6S(b1-4)GlcNAc6S
# Method in brief: as §1
# [42] = target: GalNAc(a1-3)Gal
# Method in brief: as §1
# [43] = target: GalNAc(a1-3)GalNAc
# Method in brief: as §1
# [44] = target: GalNAc(a1-3)GalNAc(a1-3)Gal(a1-4)Gal(b1-4)GlcNAc
# Method in brief: as §1
# [45] = target: GalNAc(b1-3)Gal
# Method in brief: as §1
binder,measurement,setting,value
"CTLY 1 (Homo sapiens), Q6ZS10 (protein) AITCPEGWLPFEGKCYYFSPSTKSWDEARMFCQENYSHLVIINSFAEHNFVAKAHGSPRVYWLGLNDRAQEGDWRWLDGSPVTLSFWEPEEPNNIHDEDCATMNKGGTWNDLSCYKTTYWICERKGLNDIFEAQKIEWHE",glycan array binding signal (z-score),[1],-0.231
same,glycan array binding signal (z-score),[2],-0.206
same,glycan array binding signal (z-score),[3],-0.242
same,glycan array binding signal (z-score),[4],-0.239
same,glycan array binding signal (z-score),[5],-0.236
same,glycan array binding signal (z-score),[6],-0.219
same,glycan array binding signal (z-score),[7],-0.226
same,glycan array binding signal (z-score),[8],-0.215
same,glycan array binding signal (z-score),[9],-0.232
same,glycan array binding signal (z-score),[10],-0.241
same,glycan array binding signal (z-score),[11],-0.227
same,glycan array binding signal (z-score),[12],-0.234
same,glycan array binding signal (z-score),[13],-0.243
same,glycan array binding signal (z-score),[14],-0.24
same,glycan array binding signal (z-score),[15],-0.25
same,glycan array binding signal (z-score),[16],-0.176
same,glycan array binding signal (z-score),[17],-0.245
same,glycan array binding signal (z-score),[18],-0.234
same,glycan array binding signal (z-score),[19],-0.246
same,glycan array binding signal (z-score),[20],-0.243
same,glycan array binding signal (z-score),[21],-0.244
same,glycan array binding signal (z-score),[22],-0.23
same,glycan array binding signal (z-score),[23],-0.243
same,glycan array binding signal (z-score),[24],-0.233
same,glycan array binding signal (z-score),[25],-0.243
same,glycan array binding signal (z-score),[26],1.29
same,glycan array binding signal (z-score),[27],-0.251
same,glycan array binding signal (z-score),[28],-0.232
same,glycan array binding signal (z-score),[29],-0.252
same,glycan array binding signal (z-score),[30],-0.232
same,glycan array binding signal (z-score),[31],2.06
same,glycan array binding signal (z-score),[32],1.02
same,glycan array binding signal (z-score),[33],-0.242
same,glycan array binding signal (z-score),[34],-0.219
same,glycan array binding signal (z-score),[35],-0.253
same,glycan array binding signal (z-score),[36],-0.251
same,glycan array binding signal (z-score),[37],-0.252
same,glycan array binding signal (z-score),[38],-0.235
same,glycan array binding signal (z-score),[39],-0.211
same,glycan array binding signal (z-score),[40],-0.235
same,glycan array binding signal (z-score),[41],-0.228
same,glycan array binding signal (z-score),[42],-0.249
same,glycan array binding signal (z-score),[43],-0.231
same,glycan array binding signal (z-score),[44],-0.239
same,glycan array binding signal (z-score),[45],-0.248
